# Reference: PubChem BioAssay AID488969 (Vanderbilt High Throughput Screening Facility, 2010)
# Whole data set: some 110,000 compounds, median “z-score” near -0.1, cut for the highest 2% near 2. The list shows a part of the results. The source made the active and inactive calls.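 How the source made its calls: active means z-score in the third read window above 3 or below -3; inactive means the rest.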
# Target: Metabotropic glutamate receptor 8 (Rattus norvegicus) (UniProt P70579)
# Assay: mGluR8 Gi/Go-coupled signaling modulation – cell-based, rat, thallium flux, HTS, primary screen (AID 488969)
# Conditions: HEK293 rat mGluR8, GIRK (G protein-gated inwardly rectifying potassium channel) thallium flux, FluoZin2; at 10 µM; stronger effect = higher value; submaximal glutamate (EC20) added with thallium
# Sequence of UniProt P70579 (P70579 whole entry, looked up): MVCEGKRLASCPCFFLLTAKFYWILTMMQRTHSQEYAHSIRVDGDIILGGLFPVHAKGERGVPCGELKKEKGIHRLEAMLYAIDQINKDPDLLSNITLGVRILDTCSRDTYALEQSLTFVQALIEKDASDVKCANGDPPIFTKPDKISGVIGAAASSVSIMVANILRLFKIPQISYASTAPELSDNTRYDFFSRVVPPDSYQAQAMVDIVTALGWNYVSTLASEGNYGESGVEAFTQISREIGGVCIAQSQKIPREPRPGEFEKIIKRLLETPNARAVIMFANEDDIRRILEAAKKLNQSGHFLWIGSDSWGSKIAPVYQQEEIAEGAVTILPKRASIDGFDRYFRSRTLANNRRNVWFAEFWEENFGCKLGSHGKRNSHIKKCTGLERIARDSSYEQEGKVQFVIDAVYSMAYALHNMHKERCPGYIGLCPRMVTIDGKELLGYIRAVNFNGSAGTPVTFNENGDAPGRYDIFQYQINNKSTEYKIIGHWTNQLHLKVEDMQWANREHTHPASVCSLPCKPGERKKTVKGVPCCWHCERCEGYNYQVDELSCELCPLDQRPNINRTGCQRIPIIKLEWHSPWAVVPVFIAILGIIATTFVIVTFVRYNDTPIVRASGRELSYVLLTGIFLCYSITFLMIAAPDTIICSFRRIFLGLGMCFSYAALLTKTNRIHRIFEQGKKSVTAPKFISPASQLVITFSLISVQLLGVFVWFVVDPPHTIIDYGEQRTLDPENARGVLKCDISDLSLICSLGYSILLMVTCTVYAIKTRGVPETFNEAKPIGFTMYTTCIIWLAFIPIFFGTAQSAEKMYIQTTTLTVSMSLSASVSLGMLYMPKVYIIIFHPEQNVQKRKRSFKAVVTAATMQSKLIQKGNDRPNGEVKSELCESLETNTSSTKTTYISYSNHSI
row,Structure (SMILES),z-score
1,CN(CCCCCC(=O)/C=N/O)Cc1ccccc1,-0.147
2,O=C(CCCC(=O)OCC(Cl)=C(Cl)Cl)Nc1ccccc1,0.134
3,CC(=O)N1CCCc2ccccc21,0.0326
4,Cc1nn(-c2ccccc2)c(Cl)c1C(=O)NCCCCNC(=O)c1c(C)nn(-c2ccccc2)c1Cl,-0.3
5,COC(=O)CC(C(=O)Nc1cc(C(=O)OC)cc(C(=O)OC)c1)N1CCN(C)CC1 (stereo not given),0.00897
6,CC(C)NC(=O)/C(C#N)=C/c1ccc2c(c1)OCCO2,-0.394
7,Cc1cc(C)cc(N2C(=O)N(c3ccccc3C)C3CS(=O)(=O)CC32)c1 (stereo not given),0.0681
8,CC(C)(C)NC(=O)NC(=O)COC(=O)Cn1c(C(F)(F)F)nc2ccccc21,0.193
9,COc1ccc(OCC(=O)N2CCN(C(=O)c3cccc4ccccc34)CC2)cc1,-0.258
10,Nc1nc(COc2ccc3ccccc3c2)cs1,0.246
11,O=C(NCc1ccccn1)C1CCCN(Cc2cnn(-c3ccccc3)c2-n2cccc2)C1 (stereo not given),0.219
12,O=C(NNS(=O)(=O)c1ccc(Cl)cc1)NC1CCCCC1,-0.389
13,Cc1ccc(-c2nnc(SC(C)C#N)n2N)cc1 (stereo not given),0.313
14,Cc1ccc2nc(NCCCO)[nH]c2c1,-0.308
15,CNc1cc(N2CCCCCC2)ccc1[N+](=O)[O-],-0.663
16,O=C(O)CCc1n[nH]c(=S)[nH]c1=O,1.36
17,CCCCNC(=O)N1CCOCCOCCN(C(=O)NCCCC)CCOCC1,0.0288
18,CCOC(=O)C1=NNC2(c3ccc(Cl)cc3)C(=O)N(c3cc(C)cc(C)c3)C(=O)C12 (stereo not given),0.00802
19,Cc1cc(NC(=O)CCC(=O)N(c2ccccc2)C(C(=O)NC2CCCC2)c2ccncc2)no1 (stereo not given),-0.469
20,Cc1ccc(C(=O)Nc2nc(=O)n(C(=O)CC(C)C)s2)cc1,-0.767
21,CC(C)c1nnc(NC(=O)c2cccs2)s1,0.0786
22,CCOC(=O)C1=NN(C(=O)c2ccco2)C2(CC2)C1,-0.239
23,CC1CC(=O)Nc2ccccc2N1S(=O)(=O)c1cccc(Cl)c1 (stereo not given),0.365
24,Cc1[nH]n(-c2ccccc2)c(=O)c1Sc1ccc(Cl)cc1,-0.147

row,Structure (SMILES),z-score
1,Cc1ccc(C(C)C)c(OCC(=O)Nc2ccc(N3CCN(S(C)(=O)=O)CC3)cc2)c1,0.391
2,COc1ccc(N2CCN(C(CNC(=O)C(=O)NCC3CCCO3)c3ccco3)CC2)cc1 (stereo not given),-0.215
3,Cc1ccc(CSCC(N)C(=O)O)cc1 (stereo not given),-0.223
4,C=CCNC(=O)c1csc(-c2ccccc2)n1,0.0284
5,O=C(c1cc(F)c(F)cc1Cl)N1CCN(c2ccc([N+](=O)[O-])c3ncccc23)CC1,-0.694
6,O=S(=O)(c1ccc(-c2ccccc2)cc1)N1CCOCC1,0.0509
7,CC(C)OP(=O)(OC(C)C)C1(O)C(=O)Nc2ccc(Br)cc21 (stereo not given),0.116
8,O=S(=O)(Nc1cccnc1Cl)c1ccc2c(c1)OCCO2,0.122
9,N#Cc1nc(COc2ccccc2)oc1N1CCCCC1,-0.508
10,CC(=O)c1ccc2c(c1)C1C=CCC1C(c1ccc(S(=O)(=O)N3CCOCC3)cc1)N2 (stereo not given),0.23
11,COC(=O)c1sccc1NC(=O)Cn1nnc(-c2ccc(C)cc2)n1,-0.277
12,CCN(CC)Cc1c(O)ccc2c(=O)c(-c3ccc4c(c3)OCCO4)coc12,-0.0589
13,Cc1ccccc1Oc1ncnc2sccc12,0.0113
14,O=C(CN1CCCCCC1)N/N=C/c1cccc(Cl)c1Cl,-0.302
15,c1csc(-c2ncc3ccccn23)c1,-0.279
16,CCn1cc(C2=NOC(C(=O)Nc3cccc(C(C)=O)c3)C2)c(C)n1 (stereo not given),0.464
17,O=C(CSc1ccc2nnc(-c3cccc(F)c3)n2n1)N1CCCc2ccccc21,-0.911
18,Cc1cc(=O)[nH]c(SCc2cccc(F)c2)n1,-0.123
19,CC(C)(C)SCCNC(=O)/C=C/c1ccc([N+](=O)[O-])cc1,0.305
20,O=C(CNc1cccc2ccccc12)N/N=C/C(Br)=C/c1ccccc1,0.0269
21,CC(=O)N1CCc2cc(Br)cc(S(=O)(=O)NCCCN3CCC(C)CC3)c21,0.0911
22,O=C(NC1CCCCC1)N(Cc1ccccc1)Cc1ccco1,-1.83
23,N#Cc1c(N)nc2c3c(sc(=N)c2c1N)NC(=O)CC3c1ccccc1Cl (stereo not given),0.257
24,COc1ccccc1NC(=O)c1sc2nc(-c3ccco3)ccc2c1N,0.132

row,Structure (SMILES),z-score
1,CCCCCc1ccc(-c2ccc(=O)[nH]n2)cc1,0.519
2,COC(=O)c1cc(OC)c(OC)cc1-n1cnc2cc(OC)c(OC)cc2c1=O,-0.875
3,Cn1cccc1Cc1nnc(SCC(=O)N2CCOCC2)n1-c1ccc(F)cc1,-0.171
4,N#CCCn1nc(-c2ccc([N+](=O)[O-])cc2)cc1Nc1ccccc1NC(=O)C(F)(F)F,0.0687
5,COc1ccc(Nc2nc(C(C)(C)C)nc3c2nnn3Cc2ccccc2Cl)cc1OC,-0.351
6,CCOC(=O)c1c(NC(=S)Nc2ccc(F)cc2)sc2c1CCC2,-0.154
7,CCOC(=S)NC(=O)c1sc2ccccc2c1Cl,active: 11.1
8,COc1cccc(-n2c(Cc3cc(=O)[nH]c(=O)[nH]3)nnc2SCC(=O)Nc2ccccc2)c1,-0.16
9,COc1ccc(OCC(=O)N2c3ccccc3CCc3ccccc32)cc1,-0.352
10,Cc1cc(C)nc(SC2=CS(=O)(=O)c3ccccc32)n1,1.3
11,Cc1cccc(C(=O)NNS(=O)(=O)c2ccccc2[N+](=O)[O-])c1,-0.0425
12,CC(C)c1ccc(-c2noc(C3CCCN(S(C)(=O)=O)C3)n2)cc1 (stereo not given),active: 5.82
13,Cc1ccc(NC(=O)CS(=O)CC(=O)NC2CCN(Cc3ccccc3)CC2)c(C)c1 (stereo not given),0.0772
14,C/C=C/COC(=O)c1[nH]c2c(c1C)C(=O)CC(c1ccco1)C2 (stereo not given),-0.237
15,N#CCCN(C(=O)COC(=O)c1ccc(CNS(=O)(=O)c2ccc(F)c(Cl)c2)cc1)c1ccc(F)cc1,-0.724
16,O=C(CSc1oc(-c2ccco2)nc1S(=O)(=O)c1ccc(F)cc1)NCC1CCCO1 (stereo not given),0.411
17,COc1ccc(CC(C)N2CCN(c3cccc(C(F)(F)F)c3)CC2)cc1OC (stereo not given),-0.177
18,CCOC(=O)C(CC)Sc1nnc2cc(C)c3ccccc3n12 (stereo not given),active: 7.83
19,O=C(CN(Cc1ccco1)C(=O)CCC(=O)Nc1ccccn1)NCCc1ccccc1,-0.367
20,O=C(CN1C(=O)C2C3C=CC(C3)C2C1=O)Nc1cccc(S(=O)(=O)N2CCCC2)c1 (stereo not given),0.101
21,COc1cc2[nH]c(=O)n(CCCCCC(=O)NCCCN3CCCC3=O)c(=O)c2cc1OC,0.129
22,Cc1ccc(C)c(NS(=O)(=O)c2cc(C(=O)Nc3ccccc3-c3ccccc3)ccc2C)c1,-0.321
